Like-named read-outs stand apart in the source and are kept apart here. At least one structure is not confirmed: it was looked up by name or label, or the drawing left a doubt. Positions of bridges follow the written chain, without caps; N, C: chain ends. Residues, ends and D or L forms follow the SMILES beside them.
Experiments:
Format in all cases: cell-based
hNav1.3 = hNav1.3 (Homo sapiens, UniProt Q9NY46); details: IonWorks Quattro, use-dependent block, read-out: IWQ Use Nav1.3
hNav1.5 = hNav1.5 (Homo sapiens, UniProt Q14524); details: IonWorks Quattro, use-dependent block, read-out: IWQ Use Nav1.5
Chain of hNav1.5 (Q14524 whole entry, looked up): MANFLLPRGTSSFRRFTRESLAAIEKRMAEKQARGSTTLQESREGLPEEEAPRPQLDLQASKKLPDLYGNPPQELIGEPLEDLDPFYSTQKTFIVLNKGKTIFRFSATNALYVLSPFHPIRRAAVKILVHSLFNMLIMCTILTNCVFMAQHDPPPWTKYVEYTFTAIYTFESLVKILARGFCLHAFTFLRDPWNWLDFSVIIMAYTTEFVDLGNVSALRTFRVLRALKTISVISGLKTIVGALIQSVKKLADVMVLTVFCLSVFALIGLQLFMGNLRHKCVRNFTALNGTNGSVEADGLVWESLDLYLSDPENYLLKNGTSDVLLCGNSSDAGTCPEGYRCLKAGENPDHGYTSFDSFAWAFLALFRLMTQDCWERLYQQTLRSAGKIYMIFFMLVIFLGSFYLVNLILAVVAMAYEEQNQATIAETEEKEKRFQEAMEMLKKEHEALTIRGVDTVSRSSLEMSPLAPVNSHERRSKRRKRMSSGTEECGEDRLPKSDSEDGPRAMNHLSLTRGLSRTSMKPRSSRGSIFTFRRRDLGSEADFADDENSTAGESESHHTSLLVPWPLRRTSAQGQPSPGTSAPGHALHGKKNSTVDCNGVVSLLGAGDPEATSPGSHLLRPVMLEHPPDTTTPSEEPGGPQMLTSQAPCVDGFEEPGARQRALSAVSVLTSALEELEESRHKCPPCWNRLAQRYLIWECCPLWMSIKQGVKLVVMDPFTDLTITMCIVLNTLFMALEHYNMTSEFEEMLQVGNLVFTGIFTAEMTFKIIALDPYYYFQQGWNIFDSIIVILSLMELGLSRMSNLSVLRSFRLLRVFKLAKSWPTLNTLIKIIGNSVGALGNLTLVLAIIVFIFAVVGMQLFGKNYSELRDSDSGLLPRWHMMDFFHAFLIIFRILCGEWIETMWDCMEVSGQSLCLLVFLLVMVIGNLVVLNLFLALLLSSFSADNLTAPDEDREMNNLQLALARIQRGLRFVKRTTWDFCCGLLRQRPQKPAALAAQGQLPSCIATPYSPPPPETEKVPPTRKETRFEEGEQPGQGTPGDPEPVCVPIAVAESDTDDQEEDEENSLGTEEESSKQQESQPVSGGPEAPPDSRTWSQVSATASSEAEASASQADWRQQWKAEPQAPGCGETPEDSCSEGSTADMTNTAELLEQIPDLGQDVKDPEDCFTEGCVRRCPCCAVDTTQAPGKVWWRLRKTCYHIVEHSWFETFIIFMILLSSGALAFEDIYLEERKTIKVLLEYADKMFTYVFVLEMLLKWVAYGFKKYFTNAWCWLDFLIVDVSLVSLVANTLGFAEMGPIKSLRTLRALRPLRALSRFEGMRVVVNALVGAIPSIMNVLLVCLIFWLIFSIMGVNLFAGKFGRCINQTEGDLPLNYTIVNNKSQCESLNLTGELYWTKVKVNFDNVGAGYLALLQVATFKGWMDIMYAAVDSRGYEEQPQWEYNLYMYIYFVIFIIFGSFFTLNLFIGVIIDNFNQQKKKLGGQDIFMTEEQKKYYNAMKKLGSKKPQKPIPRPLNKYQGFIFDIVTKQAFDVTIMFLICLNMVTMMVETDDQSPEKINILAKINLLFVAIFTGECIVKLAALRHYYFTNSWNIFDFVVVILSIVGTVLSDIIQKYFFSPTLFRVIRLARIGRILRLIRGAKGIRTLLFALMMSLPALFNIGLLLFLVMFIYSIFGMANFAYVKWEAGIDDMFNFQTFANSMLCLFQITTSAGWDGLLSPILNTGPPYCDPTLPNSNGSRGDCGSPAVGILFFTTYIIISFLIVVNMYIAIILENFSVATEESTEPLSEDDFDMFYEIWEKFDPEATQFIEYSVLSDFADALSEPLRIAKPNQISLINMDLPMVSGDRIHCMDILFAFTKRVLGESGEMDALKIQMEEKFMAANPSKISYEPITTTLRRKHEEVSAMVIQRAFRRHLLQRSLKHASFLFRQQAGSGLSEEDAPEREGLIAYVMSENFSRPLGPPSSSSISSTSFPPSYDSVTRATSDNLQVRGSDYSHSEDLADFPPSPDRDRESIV

hNav1.7 = hNav1.7 (Homo sapiens, UniProt Q15858); details: IonWorks Quattro, use-dependent block, read-out: IWQ Use Nav1.7

Chain of hNav1.3 (Q9NY46 whole entry, looked up): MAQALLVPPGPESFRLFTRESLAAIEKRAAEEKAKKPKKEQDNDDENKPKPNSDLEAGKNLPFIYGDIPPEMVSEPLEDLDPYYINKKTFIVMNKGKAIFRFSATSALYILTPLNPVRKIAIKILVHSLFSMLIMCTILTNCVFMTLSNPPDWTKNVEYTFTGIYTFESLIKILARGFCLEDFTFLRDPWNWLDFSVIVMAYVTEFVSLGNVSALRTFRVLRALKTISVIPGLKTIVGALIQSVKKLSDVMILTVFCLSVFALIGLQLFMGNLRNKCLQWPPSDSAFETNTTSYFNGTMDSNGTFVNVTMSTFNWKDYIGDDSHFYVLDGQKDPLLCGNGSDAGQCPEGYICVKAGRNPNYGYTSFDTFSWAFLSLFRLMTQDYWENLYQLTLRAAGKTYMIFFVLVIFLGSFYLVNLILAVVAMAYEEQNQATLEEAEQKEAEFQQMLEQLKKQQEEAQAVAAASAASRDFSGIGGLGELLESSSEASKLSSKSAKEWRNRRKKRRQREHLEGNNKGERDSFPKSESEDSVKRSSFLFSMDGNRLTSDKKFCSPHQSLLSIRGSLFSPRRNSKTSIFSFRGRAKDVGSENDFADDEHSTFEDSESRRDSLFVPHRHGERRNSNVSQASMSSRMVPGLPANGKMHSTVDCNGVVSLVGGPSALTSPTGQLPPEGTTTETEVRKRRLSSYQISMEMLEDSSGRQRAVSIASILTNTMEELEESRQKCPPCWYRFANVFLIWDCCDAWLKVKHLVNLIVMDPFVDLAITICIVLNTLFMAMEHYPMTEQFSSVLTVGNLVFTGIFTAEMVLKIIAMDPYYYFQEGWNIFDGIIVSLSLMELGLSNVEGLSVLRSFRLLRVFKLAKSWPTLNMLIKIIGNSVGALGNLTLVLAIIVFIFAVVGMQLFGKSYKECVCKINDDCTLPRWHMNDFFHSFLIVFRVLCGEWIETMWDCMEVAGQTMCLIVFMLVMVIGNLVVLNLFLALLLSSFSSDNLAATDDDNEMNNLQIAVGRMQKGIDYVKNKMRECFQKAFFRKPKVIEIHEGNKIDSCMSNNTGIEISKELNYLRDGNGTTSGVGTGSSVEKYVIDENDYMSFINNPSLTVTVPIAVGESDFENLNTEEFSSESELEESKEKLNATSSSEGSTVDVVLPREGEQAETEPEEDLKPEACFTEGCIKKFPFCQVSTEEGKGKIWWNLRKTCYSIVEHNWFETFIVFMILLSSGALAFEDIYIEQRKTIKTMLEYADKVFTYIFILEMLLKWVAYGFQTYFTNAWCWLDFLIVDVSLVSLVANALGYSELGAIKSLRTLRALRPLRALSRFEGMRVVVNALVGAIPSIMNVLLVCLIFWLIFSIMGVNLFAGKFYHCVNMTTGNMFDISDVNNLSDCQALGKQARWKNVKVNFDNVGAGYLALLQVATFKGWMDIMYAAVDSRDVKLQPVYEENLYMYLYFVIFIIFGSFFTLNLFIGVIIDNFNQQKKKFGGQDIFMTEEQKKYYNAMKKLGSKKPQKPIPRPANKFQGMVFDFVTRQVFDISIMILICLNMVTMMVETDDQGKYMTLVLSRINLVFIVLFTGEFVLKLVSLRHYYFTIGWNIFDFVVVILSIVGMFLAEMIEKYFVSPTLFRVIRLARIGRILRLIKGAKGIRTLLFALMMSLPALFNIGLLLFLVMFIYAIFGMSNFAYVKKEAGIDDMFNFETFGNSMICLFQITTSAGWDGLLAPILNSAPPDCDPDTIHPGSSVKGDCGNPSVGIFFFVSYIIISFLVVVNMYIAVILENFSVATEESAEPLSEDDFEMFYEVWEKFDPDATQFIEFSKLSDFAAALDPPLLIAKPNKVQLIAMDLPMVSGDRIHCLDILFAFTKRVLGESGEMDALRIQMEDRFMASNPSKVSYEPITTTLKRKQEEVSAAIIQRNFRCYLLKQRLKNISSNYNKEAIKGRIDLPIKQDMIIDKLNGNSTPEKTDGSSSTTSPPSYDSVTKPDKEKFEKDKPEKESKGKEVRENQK

Compound	IC50 (hNav1.3) [µM]	IC50 (hNav1.5) [µM]	IC50 (hNav1.7) [µM]	IC50 (hNav1.3; hNav1.3) [µM]	IC50 (hNav1.5; hNav1.5) [µM]	IC50 (hNav1.7; hNav1.7) [µM]
CC[C@H](C)[C@@H]1NC(=O)[C@@H]2CSSC[C@@H]3NC(=O)[C@H](C(C)C)NC(=O)[C@H](CC(C)C)NC(=O)[C@H](CC(N)=O)NC(=O)[C@@H]4CCCN4C(=O)[C@H](CCCNC(=N)N)NC(=O)[C@H](CSSC[C@H](NC(=O)[C@@H](N)CC(=O)O)C(=O)N[C@@H](CC(C)C)C(=O)NCC(=O)N[C@@H](Cc4ccccc4)C(=O)N[C@@H](Cc4cn(CCOCCOCCOCCOCCOCCOCCOCCOCCOCCOCCN)nn4)C(=O)N[C@@H](CCCNC(=N)N)C(=O)N[C@@H](CCCCN)C(=O)N2)NC(=O)[C@H](CSSC[C@@H](C(=O)N[C@@H](CCCCN)C(=O)N[C@@H](Cc2ccc(O)cc2)C(=O)N[C@H](C(=O)N[C@@H](Cc2ccccc2)C(N)=O)C(C)C)NC(=O)[C@H](Cc2c[nH]c4ccccc24)NC(=O)[C@H](CCCCN)NC(=O)[C@H](Cc2c[nH]cn2)NC(=O)[C@H]([C@@H](C)O)NC(=O)[C@H](CCCNC(=N)N)NC(=O)[C@H](CO)NC3=O)NC(=O)[C@H](CCCCN)NC(=O)[C@H](CC(=O)O)NC(=O)[C@H](CC(N)=O)NC(=O)[C@H](CC(=O)O)NC(=O)[C@@H]2CCCN2C1=O [compound 535]	6.7	6.15	5.4			
CC[C@H](C)[C@@H]1NC(=O)[C@@H]2CSSC[C@@H]3NC(=O)[C@H](C(C)C)NC(=O)[C@H](CC(C)C)NC(=O)CNC(=O)[C@H](CCC(=O)O)NC(=O)[C@H](CSSC[C@H](NC(=O)[C@@H](N)CC(=O)O)C(=O)N[C@@H](CC(C)C)C(=O)NCC(=O)N[C@@H](Cc4ccccc4)C(=O)N[C@@H](CCSC)C(=O)N[C@@H](CCCNC(=N)N)C(=O)N[C@@H](CCCCN)C(=O)N2)NC(=O)[C@H](CSSC[C@@H](C(=O)N[C@@H](CCCCN)C(=O)N[C@@H](Cc2ccc(O)cc2)C(=O)N[C@H](C(=O)N[C@@H](Cc2ccccc2)C(N)=O)C(C)C)NC(=O)[C@H](Cc2c[nH]c4ccccc24)NC(=O)[C@H](CCCCN)NC(=O)[C@H](Cc2c[nH]cn2)NC(=O)[C@H]([C@@H](C)O)NC(=O)[C@H](CCCNC(=N)N)NC(=O)[C@H](CO)NC3=O)NC(=O)[C@H](CCCCN)NC(=O)[C@H](CC(=O)O)NC(=O)[C@H](CC(N)=O)NC(=O)[C@H](CC(=O)O)NC(=O)[C@@H]2CCCN2C1=O [SEQ ID NO: 134, [Glu18;desAsn20]GpTx-1] (H-DCLGFMRKCIPDNDKCCEGLVCSRTHKWCKYVF-NH2; disulfide 2-17, 9-22, 16-29)				0.51	11.5	0.89
CC[C@H](C)[C@@H]1NC(=O)[C@@H]2CSSC[C@@H]3NC(=O)[C@H](C(C)C)NC(=O)[C@H](CC(C)C)NC(=O)[C@H](CC(N)=O)NC(=O)[C@@H]4CCCN4C(=O)[C@H](CCCNC(=N)N)NC(=O)[C@H](CSSC[C@H](NC(=O)[C@@H](N)CC(=O)O)C(=O)N[C@@H](CC(C)C)C(=O)NCC(=O)N[C@@H](Cc4cn(CCOCCOCCOCCOCCOCCOCCOCCOCCOCCOCCN)nn4)C(=O)N[C@@H](Cc4ccccc4)C(=O)N[C@@H](CCCNC(=N)N)C(=O)N[C@@H](CCCCN)C(=O)N2)NC(=O)[C@H](CSSC[C@@H](C(=O)N[C@@H](CCCCN)C(=O)N[C@@H](Cc2ccc(O)cc2)C(=O)N[C@H](C(=O)N[C@@H](Cc2ccccc2)C(N)=O)C(C)C)NC(=O)[C@H](Cc2c[nH]c4ccccc24)NC(=O)[C@H](CCCCN)NC(=O)[C@H](Cc2c[nH]cn2)NC(=O)[C@H]([C@@H](C)O)NC(=O)[C@H](CCCNC(=N)N)NC(=O)[C@H](CO)NC3=O)NC(=O)[C@H](CCCCN)NC(=O)[C@H](CC(=O)O)NC(=O)[C@H](CC(N)=O)NC(=O)[C@H](CC(=O)O)NC(=O)[C@@H]2CCCN2C1=O [compound 534]	16.8	14.9	16.3			
